Experimental data reported in US20260098078A1 (KEROS THERAPEUTICS, published 2026).

T1: growth differentiation factor 11 (GDF-11) (UniProt O95390 299-407)
T1 sequence (looked up): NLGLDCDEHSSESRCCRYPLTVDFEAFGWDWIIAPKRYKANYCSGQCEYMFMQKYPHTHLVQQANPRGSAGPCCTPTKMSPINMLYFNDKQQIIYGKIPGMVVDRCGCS

T2: BMP-10 (UniProt O95393 317-424)
T2 sequence (looked up): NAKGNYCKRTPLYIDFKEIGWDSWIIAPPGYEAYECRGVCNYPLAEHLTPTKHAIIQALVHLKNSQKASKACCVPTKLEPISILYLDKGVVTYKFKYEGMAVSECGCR

T3: BMP-9 (UniProt Q9UK05 320-429)
T3 construct: also called bone morphogenetic protein 9
T3 sequence (looked up): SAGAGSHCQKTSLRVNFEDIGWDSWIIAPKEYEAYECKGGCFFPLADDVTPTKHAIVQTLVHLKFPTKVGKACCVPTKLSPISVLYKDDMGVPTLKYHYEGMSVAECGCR

T4: Activin B (UniProt P09529 293-407)
T4 sequence (looked up): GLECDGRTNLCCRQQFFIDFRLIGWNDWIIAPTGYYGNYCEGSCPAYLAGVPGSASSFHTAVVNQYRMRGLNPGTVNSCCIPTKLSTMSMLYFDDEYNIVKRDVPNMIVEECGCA

T5: Activin A (UniProt P08476 311-426)
T5 sequence (looked up): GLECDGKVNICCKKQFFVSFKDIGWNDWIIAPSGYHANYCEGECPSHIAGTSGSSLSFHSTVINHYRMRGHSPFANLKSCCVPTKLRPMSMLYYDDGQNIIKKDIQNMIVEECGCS


Experiments:
[1] = biological target: T1, growth differentiation factor 11 …; assay: SPR (Biacore 3000), Fc fusion captured by anti-human IgG, ligand injected
Procedure: (§1) The GE Biacore 3000 was used to measure the kinetics of the interactions between the ActRII- and chimera-Fc proteins and Activin A/Activin B/growth differentiation factor 11 (GDF-11)/BMP-9/BMP-10. Anti-human capture antibody was immobilized on all four flow cells of a CM4 or CM5 chip using the reagents and protocol in the Biacore Human Antibody Capture Kit (GE Life Sciences). Briefly, anti-human IgG was diluted to 25 μg/mL in immobilization buffer. The carboxylated surface of the sensor was activated by injecting a mixture of EDC and NHS. The anti-human IgG was injected into the activated sensor chip flow cells at 10 mL/min for a total of 7 minutes until the chip had reached an immobilization level of 9000 response units (RU). Ethanolamine was injected to deactivate the sensor surfaces. Flow cell 1 was left empty and served as a reference cell to measure and subtract any nonspecific binding. The ActRII- and chimera-Fc proteins were captured in flow cells 2-4 to a maximum analyte binding response of 100 resonance units. This was done by injecting between 5-10 mL of the ActRII- and chimera-FC proteins into the flow cells at a concentration of 2 μg/mL until 200 RU. Each ligand was run in a duplicate concentration series. The data was analyzed using Scrubber2 by BioLogic Software to calculate the KD of each interaction (Table 6).

[2] = biological target: T2, BMP-10; assay: as above
Procedure: as §1

[3] = biological target: T3, BMP-9; assay: as above
Procedure: as §1

[4] = biological target: T4, Activin B; assay: as above
Procedure: as §1

[5] = biological target: T5, Activin A; assay: as above
Procedure: as §1

[6] = biological target: T1, growth differentiation factor 11 …; assay: cell-based or functional assay
[7] = biological target: T2, BMP-10; assay: cell-based or functional assay
[8] = biological target: T3, BMP-9; assay: cell-based or functional assay
[9] = biological target: T4, Activin B; assay: cell-based or functional assay
[10] = biological target: T5, Activin A; assay: cell-based or functional assay

Binder	Kd [1] [nM]	Kd [2] [nM]	Kd [3] [nM]	Kd [4] [nM]	Kd [5] [nM]	IC50, inhibition of SBE-Luciferase reporter response (HEK293) [6] [µg/mL]	IC50, inhibition of BRE-Luciferase reporter response (C2C12) [7] [µg/mL]	IC50, inhibition of BRE-Luciferase reporter response (C2C12) [8] [µg/mL]	IC50, inhibition of SBE-Luciferase reporter response (HEK293) [9] [µg/mL]	IC50, inhibition of SBE-Luciferase reporter response (HEK293) [10] [µg/mL]
ActRIIB-Fc (SEQ ID NO: 106) (Fc fusion) GRGEAETRECIYYNANWELERTNQSGLERCEGEQDKRLHCYASWRNSSGTIELVKKGCWLDDFNCYDRQECVATEENPQVYFCCCEGNFCNERFTHLPEAGGPEVTYEPPPTAPTGGG[in this place human IgG1 Fc]	0.115	0.067	0.278	0.023	0.063	0.138	0.0178	0.2	0.231	0.065
ActRIIA-Fc (SEQ ID NO: 105) (Fc fusion, Expressed in HEK293 or CHO cells, purified on protein A) GAILGRSETQECLFFNANWEKDRTNQTGVEPCYGDKDKRRHCFATWKNISGSIEIVKQGCWLDDINCYDRTDCVEKKDSPEVYFCCCEGNMCNEKFSYFPEMEVTQPTSGGG[in this place human IgG1 Fc]	0.081	0.115	25	0.373	1	0.39	0.749	215	0.214	0.39
Chimera 2 I65F E81Q-Fc (SEQ ID NO: 110) (Fc fusion, also called Chimera 2 165F E81Q-Fc) GRGEAETRECIYYNANWELERTNQSGLERCEGEQDKRLHCYASWRNSSGTIEIVKQGCWLDDFNCYDRTDCVEKKDSPQVYFCCCEGNMCNEKFSYFPEMEVTQPTSGGG[in this place human IgG1 Fc]	0.015	0.031	0.704	0.015	0.106	0.118	0.0109	5	0.03	0.104
Chimera 2 I65E N66T E81Q-Fc (SEQ ID NO: 214) (Fc fusion) GRGEAETRECIYYNANWELERTNQSGLERCEGEQDKRLHCYASWRNSSGTIEIVKQGCWLDDETCYDRTDCVEKKDSPQVYFCCCEGNMCNEKFSYFPEMEVTQPTSGGG[in this place human IgG1 Fc]	–	–	–	–	–	–	–	> 50	0.079	–
Chimera 2 E81Q-Fc (SEQ ID NO: 109) (Fc fusion) GRGEAETRECIYYNANWELERTNQSGLERCEGEQDKRLHCYASWRNSSGTIEIVKQGCWLDDINCYDRTDCVEKKDSPQVYFCCCEGNMCNEKFSYFPEMEVTQPTSGGG[in this place human IgG1 Fc]	0.007	0.005	3.7	0.024	0.042	0.0502	0.0067	44.2	0.0382	0.0783
Chimera 3-Fc (SEQ ID NO: 213) (Fc fusion) GRGEAETRECIYYNANWELERTNQSGLERCEGEQDKRRHCFATWKNISGSIEIVKQGCWLDDFNCYDRTDCVEKKDSPQVYFCCCEGNMCNEKFSYFPEMEVTQPTSGGG[in this place human IgG1 Fc]	0.013	–	1.6	< 0.002	0.056	0.034	–	5.8	0.074	0.091
Chimera 1-Fc (SEQ ID NO: 107) (Fc fusion) GAILGRAETRECIYYNANWELERTNQSGLERCEGEQDKRLHCYASWRNSSGTIEIVKQGCWLDDINCYDRTDCVATEENPQVYFCCCEGNMCNEKFSYFPEMEVTQPTSGGG[in this place human IgG1 Fc]	0.009	0.037	1.8	0.051	0.052	0.0372	0.0116	27.2	0.072	0.0692
Chimera 1/2-Fc (SEQ ID NO: 215) (Fc fusion) GAILGRAETRECIYYNANWELERTNQSGLERCEGEQDKRLHCYASWRNSSGTIEIVKQGCWLDDFNCYDRTDCVEKKDSPQVYFCCCEGNMCNEKFSYFPEMEVTQPTSGGG[in this place human IgG1 Fc]	–	–	–	–	–	–	–	7.6	0.089	–

Results, then the binder that gave them:

Kd [1] [nM]	Kd [2] [nM]	Kd [3] [nM]	Kd [4] [nM]	Kd [5] [nM]	IC50, inhibition of SBE-Luciferase reporter response (HEK293) [6] [µg/mL]	IC50, inhibition of BRE-Luciferase reporter response (C2C12) [7] [µg/mL]	IC50, inhibition of BRE-Luciferase reporter response (C2C12) [8] [µg/mL]	IC50, inhibition of SBE-Luciferase reporter response (HEK293) [9] [µg/mL]	IC50, inhibition of SBE-Luciferase reporter response (HEK293) [10] [µg/mL]	Binder
–	–	–	–	–	–	–	> 50	> 0.5	–	Chimera 2 D37R I65F E81Q-Fc (SEQ ID NO: 263) (Fc fusion) GRGEAETRECIYYNANWELERTNQSGLERCEGEQRKRLHCYASWRNSSGTIEIVKQGCWLDDFNCYDRTDCVEKKDSPQVYFCCCEGNMCNEKFSYFPEMEVTQPTSGGG[in this place human IgG1 Fc]
–	–	–	–	–	–	–	> 50	0.18	–	Chimera 5-Fc (SEQ ID NO: 218) (Fc fusion) GRGEAETRECIYYNANWELERTNQSGLERCEGEQDKRLHCYASWRNSSGTIELVKKGCWLDDFNCYDRQECVATKENPQVYFCCCEGNMCNEKFSYFPEMEVTQPTSGGG[in this place human IgG1 Fc]
0.0018	–	0.2	< 0.002	0.048	0.041	–	1.3	0.094	0.17	Chimera 4-Fc (SEQ ID NO: 217) (Fc fusion) GRGEAETRECIYYNANWELERTNQSGLERCEGEQDKRLHCYASWRNSSGTIELVKKGCWLDDFNCYDRQECVATKDSPEVYFCCCEGNMCNEKFSYFPEMEVTQPTSGGG[in this place human IgG1 Fc]
0.005	0.02	0.695	0.008	0.296	0.0548	0.0069	14.2	0.0218	0.117	Chimera 2-Fc (SEQ ID NO: 108) (Fc fusion) GRGEAETRECIYYNANWELERTNQSGLERCEGEQDKRLHCYASWRNSSGTIEIVKQGCWLDDINCYDRTDCVEKKDSPEVYFCCCEGNMCNEKFSYFPEMEVTQPTSGGG[in this place human IgG1 Fc]
0.004	–	0.82	< 0.002	0.017	0.038	–	3.2	0.15	0.061	Chimera 1/2b-Fc (SEQ ID NO: 216) (Fc fusion, also called Chimera ½b-Fc) GAILGRSETQECIYYNANWELERTNQSGLERCEGEQDKRLHCYASWRNSSGTIEIVKQGCWLDDFNCYDRTDCVEKKDSPQVYFCCCEGNMCNEKFSYFPEMEVTQPTSGGG[in this place human IgG1 Fc]
